The text below walks through data of PubChem BioAssay (NCI).

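Grown in 96-well plates, cells were treated for 48 hours with each compound at five concentrations. Insufficient inhibition: endpoint recorded as highest concentration tested. Here, GI50 denotes the concentration required for 50% inhibition of growth. TGI: total growth inhibition.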

The test deals with NCI-H322M lung. Description: growth of human tumour cells (NCI), 48 h.
For the compound `N#Cc1cc2c(=S)[nH]c(=S)[nH]c2nc1SCc1ccccc1`, the GI50 is 46.5 µM and the TGI is greater than 100 µM. The compound `C=CCC(O)c1cc(OC)ccc1OC` (stereo not drawn) came in with a TGI greater than 100 µM. On to `Cc1cc(=O)[nH]c(Sc2ccc([N+](=O)[O-])cc2[N+](=O)[O-])n1`, for which the TGI was greater than 92.7 µM. Take `CCN1Cc2c(/C=C/c3ccccc3)nc3ccc(OC)cc3c2N(c2cccc(Cl)c2)C1`: the GI50 was 2.12 µM and the TGI is 5.14 µM. With `Nc1nc(Cl)cc(NCC2(CO)CC=CC2)n1`, the TGI is greater than 100 µM. The same measure, in the same setting: to `CN(CCN1C(=O)c2cccc3cccc(c23)C1=O)CCN1C(=O)c2cccc3cccc(c23)C1=O` belongs 85.1 µM. On to `COc1ccccc1N1CCN(CC(O)Cn2c(=O)c3c(OC)nc(C)cc3c(=O)n2-c2ccccc2)CC1` (stereo not drawn), for which the GI50 is greater than 100 µM and the TGI is greater than 100 µM. Regarding `CCOc1ccc2c(c1)[n+]([O-])c(-c1ccc([N+](=O)[O-])cc1)c(N)[n+]2[O-]`, the TGI is greater than 100 µM. `Clc1ccc(C2=Cc3nc2c(-c2ccccc2)c2ccc([nH]2)c(-c2ccccc2)c2nc(c(-c4ccccc4)c4ccc([nH]4)c3-c3ccccc3)C=C2)cc1` returned a TGI greater than 62.5 µM. For the compound `N#Cc1n[nH]n(-c2ccccc2)c1=O`, the TGI is greater than 100 µM.

As to `Cc1ccc([N+](=O)[O-])cc1NC(=O)/C(CC(=O)c1sc(C(N)=S)nc1C)=N\N`, the TGI is greater than 100 µM. `N#CCc1nc(-c2cc3ccc(O)cc3oc2=O)cs1` had a TGI greater than 100 µM. Still for that read-out and setting: next, `CC(C)C(=O)/C=C/c1ccc(Cl)cc1Cl`: 28.1 µM; `C=C(CN(C)C)C(=O)c1ccccc1Cl`: greater than 100 µM.

On to `CN1CCN(c2ccc(NC(=O)c3cncnc3Nc3ccc4c(ccn4Cc4cccc(F)c4)c3)cc2)CC1`, for which the GI50 is 4.11 µM and the TGI amounted to 8.26 µM. `CCOC(=O)/C=C(/C(=O)OCC)n1cc(C)c(=O)[nH]c1=O`: the TGI is 28.8 µM. In turn, `CC(NNC(=S)N1CCN(c2ccccn2)CC1)c1cccc[n+]1[O-]` (stereo not drawn) displayed a TGI of 99.7 µM. Still for that read-out and setting: next, `CC(C)(C)[Si](C)(C)O/N=C\c1cccc(O[Si](C)(C)C(C)(C)C)c1`: 29.8 µM; `Fc1c(F)c(F)c(CSc2nc3ccccc3[nH]2)c(F)c1F`: greater than 100 µM. As for `CCN(CC)CCOc1ccccc1-n1c(C)ccc1-c1ccccc1`, the GI50 is 17.3 µM and the TGI amounted to 32 µM. The compound `CC(=O)NC(CCCCN(Cc1ccccc1)C(=O)N(C)N=O)C(=O)NCc1ccccc1` (stereo not drawn) displayed a TGI greater than 100 µM. Take `O=C(Oc1c(Cl)c(Cl)c(Cl)c(Cl)c1Cl)C1CCCN1C(=O)OCc1ccccc1` (stereo not drawn): the GI50 is 3.5 µM and the TGI is 11.9 µM. As for `COc1cc(/C=C2\CC3C4CC[C@H]5C[C@@H](O)CC[C@]5(C)C4CC[C@]3(C)\C2=N\O)cc(OC)c1OC` (stereo partly drawn), the TGI is greater than 100 µM. `COc1ccc2cn3c4ccc(O)cc4[nH]c(=O)c3c2c1`: the GI50 is 0.926 µM and the TGI was determined as 19.1 µM. As for `CCCC(=O)Nc1cc(/C=C/C(=O)N2CC(CCl)c3c2cc(OC(C)=O)c2[nH]cc(C)c32)n(C)c1` (stereo not drawn), the TGI amounted to 0.00171 µM. The same measure, in the same setting: to `Cn1c(=S)c2[nH]c(SCc3cccnc3)nc2n(C)c1=O` belongs greater than 100 µM; to `O=C(O)C(C(F)(F)F)C(F)(F)F` (tested in a mixture with another compound), greater than 100 µM. `CCSc1nc(N)c(C#N)c(-c2ccc(OC)c(OC)c2)c1C#N`: the GI50 was greater than 50 µM and the TGI is greater than 50 µM.

For `CCN1C(=O)N[C@H]2[C@@H]3NC(=O)c4ccc(Cl)n4[C@@H]3C[C@]21O`, the GI50 was 0.795 µM and the TGI worked out at 8.1 µM.

In the case of `CNc1ccc(Cl)cc1C(=O)N1CCC[C@H]1CO`, the TGI is greater than 100 µM. Same read-out and setting: to `CCOC(=O)C1=C(Nc2cccc3ccccc23)OCC1=O` belongs greater than 100 µM; to `CCOC(=O)/C(=C/c1ccccc1)N(CC)CC`, greater than 100 µM.

`NC1=CC(=O)C(=O)c2ccccc21`: the GI50 was 28.9 µM and the TGI is greater than 100 µM. `C#CCOCn1cnc2c(N)ncnc21` registered a TGI greater than 100 µM.

`COc1ccc(-c2n[nH]c3nc4ccccc4n3c2=O)cc1` registered a TGI greater than 100 µM. On the same count and under the same terms, next, `O=c1c2cc(Br)ccc2n(C2OC(CO)C(O)C(O)C2O)c(=S)n1-c1ccccc1` (stereo not drawn): greater than 100 µM. `NC(CCSCCF)C(=O)O` (stereo not drawn) registered a TGI greater than 100 µM. `CC1=C(C(=O)NCc2ccccc2)C(c2ccc(N(C)C)cc2)C(C(=O)NCc2ccccc2)=C(C)N1` registered a TGI greater than 100 µM. Same read-out and setting: to `CCOC(=O)/C=C(\C(=O)OCC)n1cc(C)c(=O)n(Cc2cn(COCCOC(C)=O)nn2)c1=O` belongs greater than 100 µM; to `CC(C)(C)c1cc(C#N)c2c(c1)C(=O)OC2(c1ccccc1)c1ccccc1C#N` (stereo not drawn), greater than 100 µM; to `C[C@]12O[C@@]3(C)O[C@@]3(C)[C@]3(C)O[C@]3(C)[C@@]1(C)O2`, greater than 100 µM. Same read-out and setting: next, `COc1ccc(/C=C2/C(=O)N(/C=C3\C(=O)Oc4ccccc4C3=O)C(=NC(C)=O)N2C)cc1OC`: greater than 100 µM. `CCOC1Oc2ccccc2-c2nc(N)ncc21` (stereo not drawn) yielded a TGI greater than 100 µM. `N#CC(C(=S)Nc1ccccc1)=C1Nc2ccccc2N1` displayed a TGI greater than 10 µM.

In turn, `COC(=O)[C@H]1C2CC[C@@H]3C45C[C@@H](c6ccoc6)O[C@@H]4O[C@@H](O2)C31CCC5C` (stereo partly drawn) yielded a TGI greater than 100 µM. Turning to `CCOC(=O)CC1C(CNC(=O)NC)OC(n2cnc3c(NC(=O)Nc4ccccc4)ncnc32)C1O[Si](C)(C)C(C)(C)C` (stereo not drawn), the GI50 is greater than 100 µM and the TGI was greater than 100 µM. Turning to `Nc1ccc(Cc2ccc(N)c(C(=O)O)c2)cc1C(=O)O`, the TGI is greater than 100 µM. Still for that read-out and setting: to `COc1cc([N+](=O)[O-])cc2c1NC(=O)C2(C)SC` (stereo not drawn) belongs greater than 100 µM. On the same count and under the same terms, to `OCCCN=C1N=C(Cl)/C(=C\c2ccccc2)N1` belongs greater than 100 µM; to `N#CC(C#N)[C@@H]1CCC=C(Sc2ccccc2)[C@H]1Sc1ccccc1`, 18.9 µM. Regarding `CCN(CC)CCC(CNc1c(C)cnc2cc(Cl)ccc12)c1ccc(Cl)c(Cl)c1` (stereo not drawn), the GI50 is 1.95 µM and the TGI was determined as 11.6 µM. Turning to `O=C(C[n+]1ccn(CC(OCc2ccc(Cl)cc2Cl)c2ccc(Cl)cc2Cl)c1)c1ccc(F)cc1` (stereo not drawn), the GI50 was 1.32 µM and the TGI was 2.7 µM. As to `COc1ccc(/C=N/C2=NNC(C)(c3ccccc3O)N2C(Cc2c[nH]c3ccccc23)C(=O)O)cc1` (stereo not drawn), the GI50 was 3.33 µM and the TGI was 15.6 µM. `COc1cc(S(=O)(=O)Nc2ccc(-c3csc(/N=C\c4cccc(Oc5ccccc5)c4)n3)cc2)ccc1Cl`: the TGI is greater than 100 µM.

Regarding `NC1=C(/C(N)=N/O)C(c2ccccc2)c2ccc3ccccc3c2O1` (stereo not drawn), the GI50 is 0.638 µM and the TGI was greater than 100 µM.

For the compound `Nc1n[nH]c2cc(F)c([C@@H]3Nc4c(F)cc5[nH]ncc5c4[C@H]4C5CCC(C5)[C@@H]34)cc12` (stereo partly drawn), the GI50 is 0.267 µM and the TGI was found to be 31.8 µM. In the case of `O=C(/C=C/c1ccc(O)c(O)c1)O[C@H]1CCCC[C@@H]1OC(=O)/C=C/c1ccc(O)c(O)c1`, the TGI is 43.1 µM.
